In the supplement of paper PMC11417369:
± gives the standard deviation of the averaged measurements. The list shows a part of the results.

These sequences were tested on PfAP2-I AP2 domain 3 (GST-tagged) (assay: gcPBM binding intensity (ln(normalized median fluorescence intensity)); higher = stronger DNA binding).
Summary of the method: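 The highest Masliner-normalised natural-log median intensity across replicate spots of either probe orientation is reported as binding intensity. GST-tagged P. falciparum DNA-binding domains expressed in E. coli were applied for 1 h to an Agilent 4 × 180k array of primer-extended double-stranded 36-bp intergenic genomic probes plus negative controls, and bound protein was detected with Alexa488 anti-GST antibody and scanned at 488 nm.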

Sequence | gcPBM binding intensity (ln)
ATCCTACTATGTTATACACACAATTACTTTTTTCTC [CACACA_site3712] | 8.27 ± 0.73
ATATGTAAAACTTCAAAAAAATATATTTTATGACGA [GTGCAC_negctrl_site324] | 7.5 ± 0.41
AATATTTATGTGAAGACACACAACTGTTTATTATAT [CACACA_site3447] | 7.68 ± 0.66
TACTACTATCTATATTGTACAAAAGGTGCCTACAAA [XGTACX_site4267] | 9.98 ± 0.3
TATTTCAAAAAAAAAAAAAATAAAAAACAACAACAA [CACACA_negctrl_site893] | 7.79 ± 0.45
AAAAAAAATTATATATGTACTTATTAATCCTTATAT [XGTACX_site1389] | 7.54 ± 0.38
ATTTATATATCGCCCACACACATGTGATTATTTATA [CACACA_site6905] | 8.18 ± 0.62
TCTATTCAAAATAAAAGTACTAGCATGTGAATTGTT [XGTACX_site5530] | 7.87 ± 0.64
TACAAGTTTTTAAAGTGTACCAAAAAAAAAGAATAA [XGTACX_site979] | 8.06 ± 0.34
TTCATTTATTTACTTACACACTTTATATATGTGGTT [CACACA_site4901] | 7.88 ± 0.52
ATATATAAAATATACACACATACTGTTCATTTAAAG [CACACA_site4169] | 7.86 ± 0.51
AATTATATTCTATTCACACATATTCCAACCTCTTTT [CACACA_site4670] | 7.87 ± 0.79
TGTATGTTGTAAAATTGTACATATATATTATATTTA [XGTACX_site4883] | 7.53 ± 0.3
ATGAATATAATAAAGAAACACACGTATACATAATGA [CACACA_site1355] | 7.85 ± 0.88
AAAAGATAATTATGCACACACACACCCAGACACAAC [CACACA_site5428] | 10.3 ± 0.47
TTTGATGGTACACGTACACACCTTGCAAATATTTTT [CACACA_site4645] | 8.15 ± 0.61
TGAAAGAACCTGATTACACACATAAATTATATATAT [CACACA_site26] | 7.9 ± 0.83
AGTTCTTCGTACCAAAAAACGGCACGCATATGTATA [TGCATGCA_negctrl_site469] | 8.03 ± 0.75
TGTATTCATACATGCACACGTACATATTTAAATATA [CACACA_site3926] | 8.49 ± 0.23

Sequence | gcPBM binding intensity (ln)
ATGGAAATATATACATGTACATAAATATATATATAT [XGTACX_site8391] | 9.13 ± 0.5
AGTAGTCTGGAGAAGAGTACATAGTATCTGGTAACC [XGTACX_site2043] | 7.82 ± 0.66
ATGTTTTGCATATATTATATATTTATTTATTTTTTT [CACACA_negctrl_site729] | 7.84 ± 0.73
AGTGGACTTTTTTTTTTTTTTTTTTTTTTTTTATTA [CACACA_negctrl_site547] | 7.96 ± 0.49
TATTTATTGTGATACTTATATTATTTTATGATTAAA [CACACA_negctrl_site901] | 7.48 ± 0.4
AGAGAGATGACAAAAAGATGAATAACGTTAAGGGAT [XGTACX_negctrl_site120] | 8.13 ± 0.91
TGTATATTTTTTATTACACACTTTTTACTTTTTAGA [CACACA_site3069] | 7.87 ± 0.54
TTTTTTAATTGTGATACGTATATTATTTAATGATAA [GTGCAC_negctrl_site704] | 7.74 ± 0.52
ATAAAATATAGATGCACACACATATAGATTTCATAC [CACACA_site7636] | 8.6 ± 0.22
GATATAATTATATTATGGTGTTTTTGATAGATATTT [GTGCAC_negctrl_site313] | 7.51 ± 0.41
AGTATATACACGTGCGTGCACAGATATTCTTTTTTT [GTGCAC_site9398] | 9.61 ± 0.48
TATTTTAAAGAGAAAACATGCATTATATAGAACATT [TGCATGCA_site328] | 7.93 ± 1
ATCAAACCATAAAAGAGTACAAAAGGATGATATTTT [XGTACX_site8883] | 7.88 ± 0.87
ATATATATATATAGTGCACACATATAAAATATATAT [CACACA_site8884] | 11.5 ± 0.15
TTATATGCTCAATGTTGTACATGTAGATATATATAT [XGTACX_site8211] | 8.89 ± 0.092
ATCTGTCGACAGGACAGTACACAGTAGCCAGTAACT [XGTACX_site2001] | 7.63 ± 0.76
AAGTATGTCGACTGTTGTACTTTTATCATTTATTAT [XGTACX_site1129] | 7.9 ± 0.73
ATATACTATGATAATACATGCGATAATACATTTTTA [TGCATGCA_site387] | 7.55 ± 0.73
TATTTATCATCATATTGTACATTATATATATAAAAT [XGTACX_site6675] | 7.75 ± 0.32

Sequence | gcPBM binding intensity (ln)
AATAAAAAAATGTCACGTACTTATTTTATTAAACCT [XGTACX_site3031] | 7.76 ± 0.49
GTATGGCGTATCATATGTACTAAAAAAAAATAAAAA [XGTACX_site5101] | 7.79 ± 0.5
TTAAATGAAAAAATATGTACGTATAATAAGAAATAT [XGTACX_site6619] | 8.28 ± 0.59
TTTTTTCTTAGTTATACATGCAAAATAAATAAATAA [TGCATGCA_site410] | 7.97 ± 0.71
TATTTTTTCTTAAACACACACATATATATATAGAAT [CACACA_site2836] | 7.88 ± 0.47
GTATGAGTCGTAGAGTGTACTCTGGAGAAAACTACA [XGTACX_site4942] | 7.64 ± 0.57
TATATATTTATTAAATGTACATAACAAAAATGGTAT [XGTACX_site3577] | 7.95 ± 0.47
ATTTATATATAATTTTGTACGAAAAAAATAAGGTAT [XGTACX_site3578] | 8.1 ± 0.6
TGCATACATAAATGTATATATTAATATATATCATAT [GTGCAC_negctrl_site252] | 7.47 ± 0.41
AAATAAAGTAAAATATGTACATAAATTAAAACACAT [XGTACX_site8539] | 8.08 ± 0.62
TATACGAAATTGTGCACACATATATTTATGTATGTA [CACACA_site1509] | 10.48 ± 0.099
AATACATAATAACATGTACACACATTCTTCTATAAA [CACACA_site9344] | 7.96 ± 0.46
AAAAAAAACGAACACACACACATACAAAATCTATAT [CACACA_site6795] | 7.81 ± 0.61
TTAAAAGAATATAATGCACACATTATTTTATTTTAT [CACACA_site3772] | 10.9 ± 0.73
TACCCACGTATATATATACACACTAATATACACCCA [CACACA_site9381] | 8.13 ± 0.45
AAAAGATTTATACATACACACATATTATAGTCACAT [CACACA_site7701] | 7.8 ± 0.67
TACACCCTATTTTTATGTACTTATTTGATTTACACA [XGTACX_site8172] | 7.88 ± 0.49
ATATAAATACGGTGTGCACACACATAATATATATAT [CACACA_site2271] | 9.52 ± 0.26
